Reference: PubChem BioAssay AID2100 (National Center for Advancing Translational Sciences (NCATS), 2009)
The whole screen tested about 300,000 compounds, of which about 1,200 (0.4%) were called active. Inconclusive means that the source gave no clear call. Such entries were picked first, then a sample of the others. Calls follow the shape of the dose curve; as a rule, active = well fitted inhibition curve with a large enough effect; inconclusive = small, poorly fitted or top-dose-only effect, or another doubt; inactive = no such curve, though single readings can be large or run the other way. Potencies beside an inconclusive call are fits to weak or partial responses and may not hold up.

Molecular target: Lysosomal alpha-glucosidase (Homo sapiens) (UniProt P10253)
Experiment: qHTS Assay for Inhibitors and Activators of Human alpha-Glucosidase Cleavage of Glycogen;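 as to activity change, negative = inhibition: 0% = full enzyme reaction and -100% = no-enzyme basal signal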
Conditions: recombinant GAA, glycogen substrate, Amplex Red glucose oxidase fluorescence; activity change, negative = inhibition: at 76.4 µM (top of the series) unless noted
Outline: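 Recombinant human alpha-glucosidase (4 nM final) hydrolysed bovine liver glycogen (30 ug) for 40 min at 37 C in pH 5.0 citrate/phosphate with 0.01% Tween-20. Released glucose detected by glucose oxidase/Amplex Red, Ex 573/Em 610 nm. Compounds up to 77 uM; AC50 from Hill fits.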
Potency is read from the fitted curve at half-maximal effect.

Row | SMILES | Potency | activity change, negative = inhibition
1 | COc1ccc(NCCC#N)cc1 | inconclusive: 25.1 µM [inhibitor, partial curve] | 
2 | Cc1ccc(Nc2c(-c3ccccc3O)nc3ncccn23)cc1 | inconclusive: 35.5 µM [inhibitor, partial curve] | 
3 | COc1cc(OC)c(NC(=O)C(c2ccccc2)N2Cc3ccccc3C2=O)cc1Cl (stereo unspecified) | inconclusive: 3.16 µM [inhibitor, full curve, poor fit] | 
4 | CC(C)CC1CC(C)(c2csc(NNC(=O)c3ccccc3)n2)OC1=O (stereo unspecified) | inconclusive: 14.1 µM [inhibitor, partial curve] | 
5 | O=S(=O)(Nc1nc2ccccc2nc1Nc1ccc(N2CCOCC2)cc1)c1cc(Cl)ccc1Cl | inconclusive: 11.2 µM [inhibitor, single point] | 
6 | COc1ccc(N2C(=O)CC(NNC(=O)c3ccco3)C2=O)cc1 (stereo unspecified) | inconclusive: 50.1 µM [inhibitor, single point] | 
7 | O=C(c1nc2ccccn2c1CN1CCN(c2ccccc2O)CC1)N1CCCC1 | inconclusive: 5.62 µM [inhibitor, full curve] | 
8 | Nc1nonc1-c1nc2ccccc2n1Cc1c(Cl)cccc1Cl | inactive | 
9 | COCCNS(=O)(=O)c1ccc2c(c1)C(=NO)c1cc(S(=O)(=O)NCCOC)ccc1-2 | inactive | 
10 | COc1ccc(OC)c(-c2noc(N3CCN(c4ccc(C(C)=O)cc4)CC3)n2)c1 | inactive | 
11 | Nc1n[nH]c(N)c1N=Nc1ccc2c(c1)OCO2 | active: 12.6 µM | 
12 | CN(C)c1ccc(N/C=C/C(=O)c2ccco2)cc1 | active: 12.6 µM | 
13 | Cc1ccc(/C=N/Nc2nc(C(C)(C)C)cs2)o1 | inconclusive: 15.8 µM [inhibitor, partial curve] | 
14 | Cc1ccc(NC2=C(NC(=O)c3ccccc3)C(=O)c3ccccc3C2=O)cc1Cl | inactive | 
15 | Cc1ccc(N2C(=O)C(Cc3ccc(O)cc3)NC2=S)cc1C (stereo unspecified) | inconclusive: 31.6 µM [inhibitor, single point] | 
16 | COCCNC(=S)NNC(=O)c1cc(-c2cccnc2)nc2ccccc12 | inconclusive: 50.1 µM [inhibitor, single point] | 
17 | O=C(/C=C/c1ccc(Cl)cc1)Nc1nccs1 | inconclusive: 222 µM [activator, partial curve, poor fit] | 
18 | NNC(=O)c1cc2ccccc2[nH]1 | inconclusive: 22.4 µM [inhibitor, partial curve, poor fit] | 
19 | COc1cc(NC(=O)c2cccc3c2C(=O)N(C2CCCCC2)C3)cc(OC)c1 | inactive | 
20 | Fc1ccc(NC(=S)NNc2ncc(C(F)(F)F)cc2Cl)c(F)c1 | inconclusive: 50.1 µM [inhibitor, single point] | 
21 | O=c1[nH][nH]c2cc(=O)n(-c3ccc(Cl)cc3)nc12 | inconclusive: 39.8 µM [inhibitor, partial curve] | 
22 | Cc1ccc(S(=O)(=O)c2nc(NN(C)C)sc2Cl)cc1 | inconclusive: 12.6 µM [inhibitor, partial curve] | 

Row | SMILES | Potency | activity change, negative = inhibition
23 | COc1ccc(C(=O)N2CCC(C(=O)O)CC2)cc1 | inconclusive: 100 µM [inhibitor, partial curve, poor fit] | 
24 | COc1ccc(-c2cc(C(F)(F)F)nc(SCCC(=O)Nc3cc(C)ccc3O)n2)cc1 | inconclusive: 10 µM [inhibitor, partial curve] | 
25 | CCOc1ccc(CCNC(=O)c2cccc(C#N)c2)cc1OCC | inconclusive: 50.1 µM [inhibitor, single point] | 
26 | CCc1ccc(-c2[nH]c3c(c2-c2sc(C)c(C(=O)OC)c2O)c(=O)[nH]c(=O)n3C)cc1 | inconclusive: 11.2 µM [inhibitor, full curve] | 
27 | N#Cc1c(N)nc(N)nc1Nc1ccc(Br)cc1 | inactive | 
28 | COc1cccc(/C=C/c2nc(C#N)c(NCCc3ccc(OC)c(OC)c3)o2)c1 | inconclusive: 22.4 µM [inhibitor, single point] | 
29 | O=C(O)c1cc(N=Cc2c(O)c3ccccc3oc2=O)ccc1O | inconclusive: 50.1 µM [inhibitor, single point] | 
30 | N#Cc1nc(-c2cccc3ccccc23)oc1NCCN1CCOCC1 | inconclusive: 35.2 µM [inhibitor, partial curve] | 
31 | Cc1cc(C)cc(NC(=O)CSc2nnc(-c3ccccc3)n2N)c1 |  | inconclusive: 66.1% [activator]
32 | c1ccc(Cc2nnc3sc(-c4cccs4)nn23)cc1 | inconclusive: 11.2 µM [activator, single point] | 
33 | Cc1ccccc1Nc1c(-c2ccco2)nc2c(C)cccn12 | inconclusive: 7.08 µM [inhibitor, full curve] | 
34 | Cc1sc2ncn(CC(=O)NCCCN3CC(C)CC(C)C3)c(=O)c2c1S(=O)(=O)N1CC(C)CC(C)C1 (stereo unspecified) | inconclusive: 39.8 µM [inhibitor, single point] | 
35 | Cc1c(C(=O)NN)nn(-c2ccc(F)cc2)c(=O)c1C#N | inconclusive: 31.6 µM [inhibitor, partial curve] | 
36 | COCCN1Cc2cccc(C(=O)NCc3ccc4c(c3)OCO4)c2C1=O | inconclusive: 39.5 µM [inhibitor, single point] | 
37 | Oc1ccccc1N=Cc1sc2ccccc2c1Cl | inconclusive: 10 µM [inhibitor, full curve] | 
38 | Cc1cc(/C=C2/NC(=O)NC2=O)c(C)n1C | inconclusive: 28.2 µM [activator, single point] | 
39 | Oc1ccc(/C=N/Nc2ccc(C(F)(F)F)cn2)cc1 | active: 22.4 µM | 
40 | CCOc1cc(/C=N/NC(=O)CCc2n[nH]c(=O)[nH]c2=O)ccc1O | inconclusive: 8.84 µM [inhibitor, full curve, poor fit] | 
41 | COc1cccc(C(=O)NNC(=O)c2sccc2-n2cccc2)c1 | inconclusive: 31.6 µM [inhibitor, single point] | 
42 | CCOC(=O)Cc1c(C)[nH]n(-c2ccccc2)c1=O | inconclusive: 39.8 µM [inhibitor, single point] | 
43 | O=C(O)c1ccc(N=Cc2nc(-c3ccco3)oc2O)cc1 | inconclusive: 3.98 µM [inhibitor, partial curve] | 
44 | CC(=O)Nc1ccc(S(=O)(=O)Oc2cccc(/C=N/N=C3/NC(=O)C(CC(=O)O)S3)c2)cc1 (stereo unspecified) | inconclusive: 28.2 µM [inhibitor, single point] | 

Row | SMILES | Potency | activity change, negative = inhibition
45 | COc1cc(/C=N/Nc2ccc(C(F)(F)F)cn2)cc(OC)c1O | inconclusive: 8.84 µM [inhibitor, partial curve] | 
46 | Nc1c(C(=O)O)ccc2c1C(=O)c1ccccc1C2=O | inactive | 
47 | N#CCC(=O)Nn1c(=S)[nH]c2ccccc2c1=O | inconclusive: 28.2 µM [inhibitor, single point] | 
48 | COc1ccc(S(=O)(=O)N2CCOC2CNC(=O)C(=O)NCCc2ccc(S(N)(=O)=O)cc2)cc1 (stereo unspecified) | inconclusive: 50.1 µM [inhibitor, single point] | 
49 | O=C(NNS(=O)(=O)c1ccccc1F)c1cc(-c2ccccc2)n[nH]1 | inconclusive: 19.8 µM [inhibitor, partial curve] | 
50 | CCCc1cc(-c2[nH]ncc2-c2ccc(C(=O)OCC)o2)c(O)cc1O | inconclusive: 12.6 µM [inhibitor, partial curve] | 
51 | Cc1ccc(S(=O)(=O)n2c(=O)oc3ccccc32)cc1 | inconclusive: 10 µM [inhibitor, full curve] | 
52 | COc1ccc(Nc2cc(Cl)nc(N)n2)cc1 | inconclusive: 50.1 µM [inhibitor, partial curve, poor fit] | 
53 | O=C(CN1C(=O)C(c2ccc(F)cc2)=NC12CCCCCC2)Nc1ccccc1Cl | inconclusive: 11.2 µM [inhibitor, single point] | 
54 | COc1cc(/C=N/NC(=O)CC#N)cc(Br)c1O | inconclusive: 35.5 µM [inhibitor, single point] | 
55 | CCn1c(SCC(=O)c2ccc(O)c(O)c2)nnc1-c1ccccc1 | active: 7.94 µM | 
56 | N#Cc1nc(-c2ccc(OCc3ccccc3)cc2)oc1NCCCN1CCOCC1 | inconclusive: 22.2 µM [inhibitor, partial curve] | 
57 | CN1C(=O)/C(=C/c2cc(C(C)(C)C)c(O)c(C(C)(C)C)c2)NC1=S | inconclusive: 8.84 µM [inhibitor, partial curve] | 
58 | Cc1ccc(NC(=S)NNC(=O)Cn2nc([N+](=O)[O-])cc2C)cc1 | inconclusive: 31.4 µM [inhibitor, partial curve] | 
59 | Cc1c(N=C2NN=C(c3c[nH]c4ccccc34)CS2)c(=O)n(-c2ccccc2)n1C | inconclusive: 39.8 µM [inhibitor, partial curve] | 
60 | CC(C)c1ccc(S(=O)(=O)c2ccc(NN)cc2)cc1 | inconclusive: 50.1 µM [activator, single point] | 
61 | COc1ccc(NC(=S)N(Cc2ccc(Cl)cc2)Cc2ccc(C(=O)O)cc2)cc1Cl | inconclusive: 20 µM [inhibitor, partial curve] | 
62 | COc1ccc(N2CCN(Cc3nc(N)nc(Nc4ccc(C)c(Cl)c4)n3)CC2)cc1 | inconclusive: 35.5 µM [inhibitor, partial curve] | 
63 | Cc1cc(C)nc(N/N=C/c2ccccc2OCC(=O)O)n1 | inconclusive: 14.1 µM [inhibitor, partial curve] | 
64 | CCCc1nnc(SCC(=O)NC2CCCCC2)n1CCOC | inconclusive: 28.2 µM [inhibitor, partial curve] | 
65 | O=C1CCN(C(=O)Nc2ccccc2)N1 | inconclusive: 35.2 µM [inhibitor, single point] | 
66 | COc1ccc(NC(=S)Nc2ccccc2OC)c(OC)c1 | inconclusive: 28.2 µM [inhibitor, partial curve] | 
